{
  "source": "patent EP1056778B1",
  "about": "“G PROTEIN-COUPLED RECEPTOR ANTAGONISTS” (priority 1998, dated 1999)",
  "format_in_all_cases": "cell-based",
  "key": {"[1]": {"target": "T1, CCKAR (Rattus norvegicus, UniProt P30551)", "T1 construct": "expressed in transfected cells; host or cells: CHO cells", "T1 sequence (P30551 1-444)": "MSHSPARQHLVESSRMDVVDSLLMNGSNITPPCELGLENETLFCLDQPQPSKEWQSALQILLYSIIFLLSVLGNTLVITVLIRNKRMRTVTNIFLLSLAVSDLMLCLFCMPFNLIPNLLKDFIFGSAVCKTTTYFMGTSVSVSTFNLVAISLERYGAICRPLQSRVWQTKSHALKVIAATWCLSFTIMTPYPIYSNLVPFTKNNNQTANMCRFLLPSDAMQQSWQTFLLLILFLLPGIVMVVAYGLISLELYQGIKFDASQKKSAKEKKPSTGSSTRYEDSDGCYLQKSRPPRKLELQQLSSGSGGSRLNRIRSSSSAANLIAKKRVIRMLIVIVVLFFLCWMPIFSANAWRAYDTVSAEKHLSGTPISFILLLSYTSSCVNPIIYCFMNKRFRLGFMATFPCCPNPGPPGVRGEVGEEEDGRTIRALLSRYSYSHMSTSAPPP", "assay": "Inhibition of CCK-8 evoked intracellular calcium release in CHO cells stably transfected with rat CCKAR", "details": "comparison of signaling and binding, Table 4", "method": "The activity of peptides from the CCKAR transmembrane domain were tested in transfected CHO cells that stably express rat […] et al. (1997), J. Biol. Chem. 272: 14817-14824). Sulfated cholecystokinin octapeptide was the CCKAR agonist. Determination of intracellular calcium release was performed as described in example 1 above. None of CCKAR-derived peptides served as antagonists of chemokine receptors and none could inhibit HIV-1 infection. The activity of the antagonists in inhibiting signaling through the receptor was compared to the ability to prevent agonist binding (Table 4). Inhibition of signaling was assessed in CCK-8 evoked intracellular calcium release in FURA-2/AM treated CHO cells stably transfected with rat […], et al. (1997) J. Biol. Chem. 272:14817). Inhibition of ligand binding was measured with the use of a fluorescent agonist, rhodamine green CCK-8 (RG-CCK-8) and quantitative confocal laser scanning microscopy (Tarasova, et al. (1997) J. Biol. Chem. 272:14817). Peptides derived from the first, second, and sixth transmembrane domains inhibited CCK-induced signaling through the CCKAR receptor. […] Table 4. The activity of CCKAR-derived TM peptides in inhibition of CCK-8 -induced intracellular calcium release and RG-CCK-8 binding."}, "[2]": {"target": "CXCR4 (Homo sapiens, UniProt P61073)", "sequence (P61073 whole entry)": "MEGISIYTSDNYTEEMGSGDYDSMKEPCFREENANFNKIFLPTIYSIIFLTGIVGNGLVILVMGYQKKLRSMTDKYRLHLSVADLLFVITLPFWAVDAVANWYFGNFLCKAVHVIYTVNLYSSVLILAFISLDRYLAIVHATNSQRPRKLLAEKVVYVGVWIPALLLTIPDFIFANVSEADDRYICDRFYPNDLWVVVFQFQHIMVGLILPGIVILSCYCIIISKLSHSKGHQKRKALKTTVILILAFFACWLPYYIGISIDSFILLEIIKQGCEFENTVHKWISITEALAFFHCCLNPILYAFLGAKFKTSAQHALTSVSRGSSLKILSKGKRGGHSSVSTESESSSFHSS", "assay": "Inhibition of SDF-1α-induced intracellular calcium release (Fura-2/AM, HeLa and U87 cells expressing CXCR4)", "details": "Table 2; SDF-1α-induced intracellular calcium release", "method": "The effect of the peptides on CXCR4-mediated calcium fluxes in HeLa cells that naturally express the CXCR4 receptor and U87 cells stably expressing the CXCR4 receptor was tested as follows. Cells grown on Nunc cover glass chamber slides were incubated with 1 micromolar Fura-2/AM for 20 min in a CO2-incubator, rinsed with PBS and mounted on the stage of a Zeiss Axiovert inverted microscope. [Ca^2+]i measurements were performed using an Attofluor digital imaging system (Atto Instruments, Rockville, MD). Fluorescence of Fura was excited at alternating wavelength of 340 and 380 nm. Fluorescence was monitored by an intensified CCD camera using a 505 cut-off filter. Calibrations of [Ca^2+]i signals were performed using Ca^2+ standards containing 1 micromolar Fura. CXCR4 antagonists were tested on HeLa cells and U87 cells. Stromal cell-derived factor-1α (SDF-1α) was used as a specific CXCR4 agonist.\nCCR5 antagonists, which were used in selectivity studies as described below, were tested on HEK (human kidney […]) cells stably expressing the CCR5 receptor and RANTES was used as an agonist. The antagonist activity of the peptides was evaluated by measuring the inhibition of agonist-evoked intracellular Ca^2+i release. These measurements were carried out in Fura-2/AM-treated cells, utilizing an Attofluor digital imaging system as described above. The agonist was SDF-1α.\nFurther optimization and structure-activity studies allowed to obtain antagonists derived from all but the third and fifth transmembrane domains (Table 2). Table 1. Activity of synthetic peptides corresponding to predicted transmembrane domains of CXCR4 in inhibition of SDF-1α-induced intracellular calcium release.\nTable 2. Biological activity of CXCR4 antagonists derived from different transmembrane domains. Anti signaling activity was determined in inhibition of SDF-1α-induced intracellular calcium release. Anti-HIV-1 activity was assessed in cytoprotection assay utilizing CEM-SS cells infected with HIV-1RF."}, "[3]": {"tested_on": "HIV-1RF", "assay": "Anti-HIV-1 cytoprotection assay, CEM-SS cells infected with HIV-1 strain RF", "details": "Fig. 2"}},
  "note": "Not every detail of the peptide structures is certain; ends, links or a residue may be inferred. Where a SMILES comes first, the peptide text is derived from it.",
  "data": [
    {"molecule": "CC[C@H](C)[C@H](NC(=O)[C@H](CCC(N)=O)NC(=O)[C@H](CC(C)C)NC(=O)[C@H](C)NC(=O)[C@H](CO)NC(=O)[C@H](CCC(N)=O)NC(=O)[C@H](Cc1c[nH]c2ccccc12)NC(=O)[C@H](CCC(=O)O)NC(=O)[C@H](CC(=O)O)NC(=O)[C@@H](N)CC(=O)O)C(=O)N[C@@H](CC(C)C)C(=O)N[C@@H](CC(C)C)C(=O)N[C@@H](Cc1ccc(O)cc1)C(=O)N[C@@H](CO)C(=O)N[C@H](C(=O)N[C@H](C(=O)N[C@@H](Cc1ccccc1)C(=O)N[C@@H](CC(C)C)C(=O)N[C@@H](CC(C)C)C(=O)N[C@@H](CO)C(=O)N[C@H](C(=O)NCC(=O)N[C@@H](CC(N)=O)C(=O)N[C@H](C(=O)N[C@@H](CC(C)C)C(=O)N[C@H](C(=O)N[C@H](C(=O)N[C@H](C(=O)N[C@H](C(=O)O)C(C)C)[C@@H](C)O)[C@@H](C)CC)C(C)C)[C@@H](C)O)C(C)C)[C@@H](C)CC)[C@@H](C)CC", "note": "[CCKAR-1-6] (H-DDEWQSALQILLYSIIFLLSVGNTLVITV-OH)", "values": [
      {"measurement": "potency in inhibition of ligand signaling compared with binding", "setting": "[1]", "result": "comparable potencies"}
    ]},
    {"molecule": "CC[C@H](C)[C@H](NC(=O)[C@H](Cc1ccccc1)NC(=O)[C@H](CC(=O)O)NC(=O)[C@@H]1CCCN1C(=O)[C@@H](NC(=O)[C@@H](NC(=O)[C@H](CC(C)C)NC(=O)[C@H](CC(C)C)NC(=O)[C@H](CC(C)C)NC(=O)[C@H](C)NC(=O)[C@@H]1CCCN1C(=O)[C@@H](NC(=O)[C@H](Cc1c[nH]c2ccccc12)NC(=O)[C@@H](NC(=O)CNC(=O)[C@@H](NC(=O)[C@H](Cc1ccc(O)cc1)NC(=O)[C@@H](N)C(C)C)C(C)C)C(C)C)[C@@H](C)CC)[C@@H](C)O)[C@@H](C)CC)C(=O)N[C@@H](Cc1ccccc1)C(=O)N[C@@H](C)C(=O)N[C@@H](CC(N)=O)C(=O)N[C@@H](CC(=O)O)C(=O)N[C@@H](CC(=O)O)C(=O)O", "note": "[Peptide F-4-2] (H-VYVGVWIPALLLTIPDFIFANDD-OH)", "values": [
      {"measurement": "Concentration, required for inhibition of signal transduction", "setting": "[2]", "result": 5, "unit": "µM"},
      {"measurement": "concentration that completely inhibited infection", "setting": "[3]", "result": 1, "unit": "µM"}
    ]}
  ]
}
